From publication PMC7996970 (The Biochemical journal, 2020) come the findings set out here.

A word on the stoichiometry N: it is the number of molecules, sites or subunits per partner or assembly.

This data set deals with the molecule itself. The experiment in a line: SEC. (In general: Size exclusion chromatography separates by hydrodynamic size, large species first.)

B1: D273L IDH1 (enzyme)
chain: not shown
In the case of B1, the “stoichiometry N” value amounted to 2.
